# From PubChem BioAssay (NCATS)
# This list was built around the results that the source calls inconclusive (neither active nor inactive); the mix of calls is not that of the screen. Potencies of inconclusive entries are left out as doubtful fits. Calls of active or inactive are those of the source. The call rests on the fitted dose curve; in most records, active means well fitted inhibition curve with a large enough effect; inconclusive means small, poorly fitted or top-dose-only effect; inactive means no such curve, though single readings can be large or run the other way.
# Target: Retinal dehydrogenase 2 (Homo sapiens) (UniProt O94788)
# Assay: qHTS for Inhibitors of the Aldehyde Dehydrogenase Family (ALDH1A2) Confirmation screens (AID 2061314); further: nearly all actives have a fitted effect of over 65% in size
# Details: ALDH1A2 enzyme inhibition qHTS confirmation; activity, negative = inhibition: at 45.9 µM (top of the series) unless noted; series mostly up to 45.9 µM
# On the % scale 0 is the no-effect control and ±100 the full control effect; potency means the concentration at half of the fitted maximal effect; tags describe the fitted curve by direction and shape.
Compound,outcome,Potency,"activity, negative = inhibition"
COc1cccc(C2c3c(ncn(CCCN4CCOCC4)c3=N)Oc3ccc4ccccc4c32)c1 (centres undefined),inactive,–,–
O=S(=O)(NCCCCCCNS(=O)(=O)c1c(F)cccc1F)c1ccc2c(c1)OCCO2,–,"inconclusive [inhibitor, partial curve, poor fit]",–
c1nc(NCC2CC2)c2cc(-c3ccc4c(c3)OCO4)ccc2n1,–,"inconclusive [inhibitor, partial curve]",–
OCC1OC(Oc2cc(O)cc(/C=C/c3ccc(OC4OC(CO)C(O)C(O)C4O)cc3O)c2)C(O)C(O)C1O (centres undefined),–,"inconclusive [inhibitor, partial curve]",–
O=C(O)c1cccc(-n2cccc2/C=C2/C(=O)N(Cc3ccc(F)cc3)C(=O)N2Cc2ccc(F)cc2)c1,inactive,–,–
O=C(O)c1cccc(-n2cccc2)c1,–,"inconclusive [inhibitor, partial curve, poor fit]",–
C[C@@H]1O[C@@H](O[C@@H]2[C@@H](O)[C@@H](O[C@]3(CO)O[C@H](CO)[C@@H](O)[C@@H]3OC(=O)/C=C/c3ccc(O)cc3)O[C@H](CO)[C@H]2OC(=O)/C=C/c2ccc(O)cc2)[C@H](O)[C@H](O)[C@H]1O[C@@H]1O[C@@H](C)[C@H](O[C@@H]2OC[C@](O)(CO)[C@H]2O)[C@@H](O)[C@H]1O,–,"inconclusive [inhibitor, partial curve]",–
CCc1ccc(CN2CCC(C(=O)Nc3ccc(Oc4cccnc4)cc3)CC2)o1,–,"inconclusive [inhibitor, partial curve]",–
N#Cc1ccc2[nH]cc(CCCCN3CCN(c4ccc5oc(C(N)=O)cc5c4)CC3)c2c1,–,active: 15.8 µM,–
O=C(O)c1cc(-c2c(-c3ccccc3)nn3ccccc23)n[nH]c1=O,–,"inconclusive [inhibitor, partial curve]",–
Cc1cc(N[S+](=O)([O-])c2ccc(NC(=O)Cc3ccc4nccnc4c3)cc2)no1,–,"inconclusive [inhibitor, partial curve]",–
OC[C@H]1O[C@@H](O[C@H]2[C@H](O)[C@@H](CO)O[C@@H](OCc3ccccc3)[C@@H]2O[C@@H]2OC[C@](O)(CO)[C@H]2O)[C@H](O)[C@@H](O)[C@@H]1O,–,"inconclusive [inhibitor, partial curve]",–
COc1cccc(Cc2nc3ccccc3nc2SCC(=O)N2CCN(c3ccccc3)CC2)c1,–,–,inactive: -3.84%
COc1ccc(C2Nc3ccccc3C(=O)N2Cc2ccc(C(C)(C)C)cc2)cc1COc1ccc(NC(C)=O)cc1 (centres undefined),–,"inconclusive [inhibitor, full curve]",–
Cc1cccc(Nc2nc(C#N)nc(NC3CCCC3)n2)c1,–,"inconclusive [inhibitor, partial curve]",–
O=C(O)c1ccccc1Nc1cccc(OCc2ccc3ccccc3n2)c1,–,"inconclusive [inhibitor, partial curve, poor fit]",–
CC1CC(=O)[C@]2(O)C(C(=O)OCCc3ccc(O)c(O)c3)=CO[C@@H](O[C@@H]3O[C@H](CO)[C@@H](O)[C@H](O)[C@H]3O)[C@H]12 (some centres undefined),–,–,inactive: -17% [at 25.6 µM]
COc1cccc(CNC(=O)c2ccc3c(c2)sc2nc(-c4ccccc4)cn23)c1OC,–,–,inactive: -10.9%
Cc1noc(C)c1-c1csc(N2CCC(C(N)=O)CC2)n1,–,–,inactive: -4.2%
NC(=O)C1CCN(c2nc(-c3ccccc3[N+](=O)[O-])cs2)CC1,–,"inconclusive [inhibitor, partial curve, poor fit]",–

Compound,outcome,Potency,"activity, negative = inhibition"
CCOc1ccc(NC(=O)Cn2c(Nc3cc(C)cc(C)c3)nc(C)cc2=O)cc1,–,"inconclusive [inhibitor, partial curve]",–
CCOC(=O)c1ccoc1-c1ccc2ncnc(NCc3ncc[nH]3)c2c1,–,"inconclusive [inhibitor, partial curve, poor fit]",–
CC(=O)N[C@@H](CC(=O)O)C(=O)N[C@@H](CCC(=O)O)C(=O)N[C@H](C(=O)N[C@@H](CC(=O)O)C(=O)Nc1ccc2c(C)cc(=O)oc2c1)C(C)C,–,"inconclusive [inhibitor, single point]",–
O=[S+]([O-])(Nc1ccc(-c2nc3ccccc3[nH]2)cc1)c1ccc2c(c1)OCO2,–,active: 15.9 µM,–
CN(CC(=O)O)c1ncnc2ccc(-c3ccc4c(c3)OCO4)cc12,–,"inconclusive [inhibitor, single point]",–
COc1cccc(CNc2ccc([S+](=O)([O-])Nc3cc4ccccc4s3)cc2)c1O,–,"inconclusive [inhibitor, full curve]",–
Oc1ccccc1C1Nc2cccc3cccc(c23)N1,–,"inconclusive [inhibitor, partial curve]",–
O=C(O)c1ccc(-n2cccc2/C=C2\SC(=O)N(Cc3ccc(F)cc3)C2=O)cc1,–,"inconclusive [inhibitor, partial curve]",–
COc1ccc(-c2nc(CCNC(=O)c3c(F)cccc3Cl)cs2)cc1,inactive,–,–
COc1ccc(C2Nc3ccccc3C(=O)N2Cc2ccccc2)cc1COc1ccc(Cl)cc1 (centres undefined),–,"inconclusive [inhibitor, partial curve, poor fit]",–
CN(C)[S+](=O)([O-])c1ccc(-c2cncc(NC(=O)c3cccs3)c2)cc1,–,active: 6.31 µM,–
Cc1cc(-c2nnc3n2CCCCC3)c(C)n1-c1ccc(Cl)c(Cl)c1,–,active: 20.1 µM,–
NC(N)=NCCC[C@H](NC(=O)c1sccc1NS(=O)(=O)c1cccc2nsnc12)C(=O)O,–,–,inactive: -8.8%
O=C(NCc1ccccc1)C1CCN(c2nc(-c3ccc(Br)cc3)cs2)CC1,inactive,–,–
CN1CCc2sc(NC(=O)Cc3ccccc3)c(C(=O)Nc3ccc(Cl)cc3)c2C1,–,"inconclusive [inhibitor, partial curve]",–
CCCCN(C)C(=O)Cn1nc(-c2ccc(Cl)cc2)ccc1=O,–,"inconclusive [inhibitor, partial curve]",–
O=C(O)c1ccccc1C(=O)Nc1ccc(-c2ccccc2)cc1,–,active: 10.1 µM,–
O=C(O)c1ccc(-n2cccc2/C=C2\SC(=O)N(Cc3ccc(Br)cc3)C2=O)cc1,–,"inconclusive [inhibitor, partial curve]",–
Cc1nnc(-c2cnn(C)c2N)n1CCc1ccccc1,–,–,inactive: 4.44%
